Test results reported in the supplement of paper PMC4967469.

Assays:
Test in all cases: Viability of human cancer cell lines after 72 h of drug (GDSC screen)
AMG-706 = compound: CC1(C)CNc2cc(NC(=O)c3cccnc3NCc3ccncc3)ccc21 [AMG-706]; conditions: top dose 2 µM; top dose inferred
Description: (§1)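 Human cancer cell lines in 384-well plates, medium with 10% serum, drug for 72 h over a 256-fold dose range (nine 2-fold or five 4-fold steps up to the top dose). Adherent lines were fixed and stained with the nucleic acid dye Syto60, suspension lines read with resazurin; signal relative to control wells, capped at 0 and 100%. One two-parameter sigmoid per drug and line, fitted in a mixed model over all curves with the slope shared within a line.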

Cyclopamine = compound: CC1=C2C[C@H]3[C@@H](CC=C4C[C@@H](O)CC[C@@]43C)[C@@H]2CC[C@]12O[C@@H]1C[C@H](C)CN[C@H]1[C@H]2C [Cyclopamine]; conditions: top dose 16 µM; top dose inferred
Description: as §1

Belinostat = compound: O=C(/C=C/c1cccc(S(=O)(=O)Nc2ccccc2)c1)NO [Belinostat]; conditions: top dose 20 µM; top dose inferred
Description: as §1

YM155 = compound: COCC[n+]1c2c(n(Cc3cnccn3)c1C)C(=O)c1ccccc1C2=O [YM155]; conditions: top dose 5.12 µM
Description: as §1

JNK Inhibitor VIII = compound: CCOc1nc(NC(=O)Cc2cc(OC)ccc2OC)cc(N)c1C#N [JNK Inhibitor VIII]; conditions: top dose 10 µM; top dose inferred
Description: as §1

PHA-665752 = compound: Cc1[nH]c(/C=C2\C(=O)Nc3ccc(S(=O)(=O)Cc4c(Cl)cccc4Cl)cc32)c(C)c1C(=O)N1CCC[C@@H]1CN1CCCC1 [PHA-665752]; conditions: top dose 2 µM
Description: as §1

JQ1 = compound: Cc1sc2c(c1C)C(c1ccc(Cl)cc1)=N[C@@H](CC(=O)OC(C)(C)C)c1nnc(C)n1-2 [JQ1]
Description: as §1

OSI-906 = compound: C[C@]1(O)C[C@@H](c2nc(-c3ccc4ccc(-c5ccccc5)nc4c3)c3c(N)nccn32)C1 [OSI-906]; conditions: top dose 2.56 µM; top dose inferred
Description: as §1

JNJ-26854165 = compound: c1ccc2c(CCNc3ccc(Nc4ccncc4)cc3)c[nH]c2c1 [JNJ-26854165]; conditions: top dose 10 µM
Description: as §1

CGP-60474 = compound: OCCCNc1cc(-c2ccnc(Nc3cccc(Cl)c3)n2)ccn1 [CGP-60474]; conditions: top dose 0.256 µM; top dose inferred
Description: as §1

SB-715992 = compound: Cc1ccc(C(=O)N(CCCN)[C@@H](c2nc3cc(Cl)ccc3c(=O)n2Cc2ccccc2)C(C)C)cc1 [SB-715992]; conditions: top dose 0.128 µM; top dose inferred
Description: as §1

FTI-277 = compound: COC(=O)[C@H](CCSC)NC(=O)c1ccc(NC[C@@H](N)CS)cc1-c1ccccc1 [FTI-277]; conditions: top dose 1.024 µM; top dose inferred
Description: as §1

NSC-207895 = compound: CN1CCN(c2ccc([N+](=O)[O-])c3no[n+]([O-])c23)CC1 [NSC-207895]; conditions: top dose 20 µM; top dose inferred
Description: as §1

Docetaxel = compound: CC(=O)O[C@@]12CO[C@@H]1C[C@H](O)[C@@]1(C)C(=O)[C@H](O)C3=C(C)[C@@H](OC(=O)[C@H](O)[C@@H](NC(=O)OC(C)(C)C)c4ccccc4)C[C@@](O)([C@@H](OC(=O)c4ccccc4)[C@H]21)C3(C)C [Docetaxel]; conditions: top dose 0.0125 µM
Description: as §1

[1] = top dose 1 µM, screen: GDSC drug entry 1218, top dose inferred
[2] = top dose 2.56 µM, screen: GDSC drug entry 163

Cell Line | AUC (AMG-706) | pIC50 (AMG-706) | AUC (Cyclopamine) | pIC50 (Cyclopamine) | AUC (Belinostat) | pIC50 (Belinostat) | AUC (YM155) | pIC50 (YM155) | AUC (JNK Inhibitor VIII) | pIC50 (JNK Inhibitor VIII) | AUC (PHA-665752) | pIC50 (PHA-665752) | AUC (JQ1; [1]) | pIC50 (JQ1; [1]) | AUC (JQ1; [2]) | pIC50 (JQ1; [2]) | AUC (OSI-906) | pIC50 (OSI-906) | AUC (JNJ-26854165) | pIC50 (JNJ-26854165) | AUC (CGP-60474) | pIC50 (CGP-60474) | AUC (SB-715992) | pIC50 (SB-715992) | AUC (FTI-277) | pIC50 (FTI-277) | AUC (NSC-207895) | pIC50 (NSC-207895) | AUC (Docetaxel) | pIC50 (Docetaxel)
CGTH-W-1 (thyroid, adherent) | 0.563 | 6.73 | 0.986 | < 4.80 | 0.552 | 5.76 | 0.062 | > 7.70 | 0.963 | < 5.00 | 0.975 | < 5.70 | 0.971 | < 6.00 | 0.421 | 7.01 | 0.986 | < 5.59 | 0.892 | < 5.00 | 0.73 | 7.14 | 0.96 | < 6.89 | 0.887 | < 5.99 | 0.923 | < 4.70 |  | 
CTB-1 (B-cell lymphoma, suspension) | 0.976 | < 5.70 | 0.966 | < 4.80 |  |  | 0.039 | > 7.70 | 0.978 | < 5.00 | 0.978 | < 5.70 | 0.958 | < 6.00 | 0.633 | 6.37 | 0.947 | < 5.59 | 0.867 | < 5.00 | 0.743 | 6.98 | 0.757 | 7.23 | 0.975 | < 5.99 |  |  | 0.844 | < 7.90
D-247MG (glioma, adherent) | 0.932 | < 5.70 | 0.876 | < 4.80 | 0.444 | 6.08 | 0.288 | 7.20 | 0.978 | < 5.00 | 0.975 | < 5.70 | 0.977 | < 6.00 | 0.678 | 6.22 |  |  | 0.845 | < 5.00 | 0.877 | < 6.59 | 0.859 | < 6.89 | 0.974 | < 5.99 | 0.949 | < 4.70 | 0.642 | 8.65
D-336MG (glioma, adherent) | 0.976 | < 5.70 | 0.963 | < 4.80 | 0.903 | < 4.70 |  |  | 0.979 | < 5.00 | 0.975 | < 5.70 | 0.96 | < 6.00 | 0.672 | 6.25 |  |  | 0.822 | 5.09 | 0.723 | 7.08 | 0.614 | 7.74 | 0.947 | < 5.99 | 0.903 | < 4.70 | 0.654 | 8.63

pIC50: −log10 of the molar value. A lower IC50 marks a more sensitive line; where the fit passes the top or lowest dose, that dose stands as a limit. The AUC spans the tested range (256-fold, ending at the top dose) of the same fit: 1 means no effect, lower means more sensitive. For part of these data: The top dose, if marked as inferred, was calculated from the reported fits. For part of these data: An entry number marks a drug with two screens in the source, which often give different values.
